The results in this text go back to the RNAGym collection of RNA variant scans (doi:10.1093/nar/gkz1192).

The labels stand for the following.
B1: CPEB3 Ribozyme (parent)
chain: UAACAGGGGGCCACAGCAGAAGCGUUCACGUCGCAGCCCCUGUCAGAUUCUGGUGAAUCUGCGAAUUCUGCUGUAUAUCUC

The source gives no read counts; variants with many changes may rest on few reads.

The data set covers variants of B1. In words: self-cleavage, relative activity (ratio to wild type); higher = more cleavage; in vitro, sequencing. In a few lines: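 Relative activity compares each variant's cleaved/total read fraction with that of the unmutated ribozyme. To get these fractions, barcoded CPEB3 ribozyme libraries from rounds of error-prone PCR were transcribed with T7 RNA polymerase for 5 hours at 37°C and then given 15 min of DNase I treatment before EDTA was added. The RNAs were reverse transcribed with template switching and sequenced on Illumina, and DNA sequencing linked barcodes to variants. A minimum of 5 reads applied, and three batches were averaged.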
Consider A18C A28G U31C U41C U69C U72A, for which the self-cleavage came to 0.07. As to A18C U25A C32A U74C, the self-cleavage was determined as 0.06. Consider A18G A20G G36C A64G U67C, for which the self-cleavage was 0.05.

In the case of A18C A20G A21G U26A U41A U67A A75G, the self-cleavage was 0.05. On to A18C U49A U69G A75U, for which the self-cleavage amounted to 0.96. Turning to A18G A20G U54C, the self-cleavage stood at 0.37. Regarding C17U U31A A35G, the self-cleavage amounted to 0.97.

Regarding A18C U51C A56G U80C, the self-cleavage amounted to 0.34.

With A18C A35G U74C, the self-cleavage is 0.53. For the variant A18C U26C U41A, the self-cleavage is 0.31.

For the variant A18C U51G U54C A64U, the self-cleavage was 0.29. On to A18C A21C U31C C37U U67C, for which the self-cleavage is 0.01. For the variant C17U U25C U43C A45G A47U, the self-cleavage stood at 0.13. As for A18C A56G U80C, the self-cleavage came to 0.46. The result for A18C G22U C29U U51C C79U reads 0.25; that for A18G A20G U41C A56U U58C A65U U72A, 0.18. The figure for A18C C23U A45C U48C G70U U78C is 0.15. The figure for A18G A20G U49C G53U is 0.25; for C17U G24A U51C it is 0.13; for C17U U26C A56G U74A U78C it is 0.44. In the case of A18C G19C U49A U54A, the self-cleavage is 0.1. The figure for A18C C44A U67C U78C is 0.06; for A18C U26A C27U A47G U51G it is 0.08.

As to A18C C40A U72C, the self-cleavage came to 0.3.

In the case of A18C U51C A65G, the self-cleavage was 0.28. On to C17U U41A A47U, for which the self-cleavage is 0.49.

In the case of C17U U41A C68A, the self-cleavage was 0.15. Regarding A18C U49A A75U, the self-cleavage was found to be 0.49. As to A18G A20G A28G U60C U78C, the self-cleavage was found to be 0.34. In the case of C17U U31A U43C, the self-cleavage stood at 0.27. Take C17U G30C C38A G70U: the self-cleavage came out at 0.15. Consider A18G A20G C23G U25C A35G A56G A64G, for which the self-cleavage amounted to 0.06. With A18G A20G U31C U67A, the self-cleavage came to 0.08.

With A18G A20G U25C, the self-cleavage worked out at 0.6. Regarding C17U U25G U41C A75U, the self-cleavage stood at 0.07. For A18C C29G C40U U67C, the self-cleavage came to 0.13.

Regarding A18C U25A U69C A77C C81A, the self-cleavage is 0.1. As for A18C U25A C34G C38G U48C U54A A64G, the self-cleavage turned out to be 0.04. Regarding A18C U25C G46U, the self-cleavage was 0.2. The figure for C17U U26C U69A A77C is 0.16; for A18C A56G U60A U76C it is 0.09. Take A18C A28U U54C: the self-cleavage was 0.28. As to A18C U25C U72C, the self-cleavage was determined as 0.17. Turning to C17U U26A G53A A75U, the self-cleavage is 0.64.

With C17U U26C U54A U60C U80C, the self-cleavage amounted to 0.2.

In the case of A18C U26C G55A, the self-cleavage is 0.07. Consider C17U U25C U67C, for which the self-cleavage came out at 0.1. As for A18G A20G U26A A35G, the self-cleavage amounted to 0.65. C17U U58C C68A: the self-cleavage was determined as 0.16.

On to C17U C62U A65G, for which the self-cleavage came to 0.08. Consider A18C A35U U51A, for which the self-cleavage is 0.11. For C17U U31C U60A, the self-cleavage worked out at 0.33. The figure for A18C U51A U72C is 0.54; for A18C U54A G63A it is 0.49. In the case of C17U G42U U72C, the self-cleavage turned out to be 0.27. On to A18C G52U A64G, for which the self-cleavage stood at 0.34. Take A18G A20G U31C U60G A75U: the self-cleavage is 0.19. Turning to C17U U31C A57G C59A, the self-cleavage was 0.1. The result for A18C U48C U60C U69C U78A reads 0.03; that for C17U U26C U60C A77U, 0.11; that for C17U U43C U69C C71U, 0.19.

As for C17U G19U U25G C27U, the self-cleavage stood at 0.29. As for A18C A45G A65G, the self-cleavage is 0.23. With A18C U31C U60C, the self-cleavage was 0.28. Take A18C U26C G53A U72A: the self-cleavage came out at 0.09. In the case of A18G A20G C23U U25C A45U, the self-cleavage was found to be 0.15.

With C17U U25C C32U, the self-cleavage worked out at 0.08.

A18G A20U A21G U51C: the self-cleavage was 0.08. Regarding C17U U25C U74C, the self-cleavage was 0.38. On to C17U U41C U69C, for which the self-cleavage amounted to 0.22.

With A18C A20U U54G A65G U69A, the self-cleavage was 0.04. Consider A18C U51G A64U U72A, for which the self-cleavage was 0.15. Turning to A18C A20G A57U, the self-cleavage stood at 0.23. On to A18C U31A A56G A65U, for which the self-cleavage came to 0.1. On to A18G A20G U26C U49C U67A U76A, for which the self-cleavage came out at 0.04. The figure for A18C U26C A45G A57G is 0.34; for A18C U25C U41A U54C U66C it is 0.07; for A18C A21G U25A C62U it is 0.06. On to A18C U78A C79G, for which the self-cleavage is 0.24.

As for A18C A35U C62U, the self-cleavage stood at 0.15. Regarding A18C A20G C40A U43C A65G, the self-cleavage is 0.14.

As to A18C U51C G70C U80C, the self-cleavage was found to be 0.17.

As to C17U U25C A57G, the self-cleavage turned out to be 0.18. On to C17U U67A U80C, for which the self-cleavage came out at 0.4.
